Test results reported in publication PMC12820563, “FoxP3 forms a head-to-head dimer in vivo and stabilizes its multimerization on adjacent microsatellites”.
The list shows a part of the results.

Each sequence was assayed against T1, MBP-FoxP1dN (Mus musculus, UniProt P58462 326-579) (assay: PD-seq (MBP pull-down with sequencing); 20 mM Tris-HCl pH 7.5, 100 mM NaCl, 1.5 mM MgCl2, 0.4 uM protein, 0.1 uM dsDNA library, 30 min, room temperature, amylose pull-down; high values mean tight binding). Settings: protein: recombinant; tags: His6-MBP; chain copies: 2; dsDNA, one strand shown.
T1 sequence: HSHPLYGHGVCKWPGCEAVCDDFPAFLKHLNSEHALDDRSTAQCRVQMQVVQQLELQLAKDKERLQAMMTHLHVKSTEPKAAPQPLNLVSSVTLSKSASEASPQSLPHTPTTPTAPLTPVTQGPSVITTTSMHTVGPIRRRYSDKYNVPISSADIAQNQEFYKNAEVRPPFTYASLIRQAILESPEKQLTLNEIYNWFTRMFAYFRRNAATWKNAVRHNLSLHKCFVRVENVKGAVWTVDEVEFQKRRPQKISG
Summary of the method: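 In Tris pH 7.5 buffer with NaCl and MgCl2, 0.4 µM His6-MBP-tagged mouse FoxP3 or FoxP1 fragment lacking the N-terminus, from E. coli, met 0.1 µM Klenow-filled double-stranded degenerate DNA library for 30 min at room temperature. Three washes on amylose resin followed capture of the complexes, then proteinase K release of DNA, PCR barcoding and Illumina sequencing. Binding is taken as pooled-replicate reads-per-million enrichment of pull-down relative to input.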

| Sequence | binding signal |
| --- | --- |
| GATGATTGTTCTCCCAGCTGATGAATTTGGAAAATCGAGTAAACAAATTTTCCTAATCTTTCTGTTCAAGCGCCATCTAC | 1.06 RPM ratio (pull-down/input) |
| GATGATTGTTCTCCCAGCTGATGAATTGATAGGATCGAGTAAACAAATTTTCCTAATCTTTCTGTTCAAGCGCCATCTAC | 0.98 RPM ratio (pull-down/input) |
| GATGATTGTTCTCCCAGCTGATGAATTCTAGGACTCGAGTAAACAAATTTTCCTAATCTTTCTGTTCAAGCGCCATCTAC | 0.793 RPM ratio (pull-down/input) |
| GATGATTGTTCTCCCAGCTGATGAATTATCTCGTTCGAGTAAACAAATTTTCCTAATCTTTCTGTTCAAGCGCCATCTAC | 0.899 RPM ratio (pull-down/input) |
| GATGATTGTTCTCCCAGCTGATGAATTTTGACAATCGAGTAAACAAATTTTCCTAATCTTTCTGTTCAAGCGCCATCTAC | 1.26 RPM ratio (pull-down/input) |
| GATGATTGTTCTCCCAGCTGATGAATTTTAACTTTCGAGTAAACAAATTTTCCTAATCTTTCTGTTCAAGCGCCATCTAC | 0.872 RPM ratio (pull-down/input) |
| GATGATTGTTCTCCCAGCTGATGAATTTGACTGATCGAGTAAACAAATTTTCCTAATCTTTCTGTTCAAGCGCCATCTAC | 0.785 RPM ratio (pull-down/input) |
| GATGATTGTTCTCCCAGCTGATGAATTCGTATTGTCGAGTAAACAAATTTTCCTAATCTTTCTGTTCAAGCGCCATCTAC | 2.07 RPM ratio (pull-down/input) |
| GATGATTGTTCTCCCAGCTGATGAATTTTTCGTTTCGAGTAAACAAATTTTCCTAATCTTTCTGTTCAAGCGCCATCTAC | 1.04 RPM ratio (pull-down/input) |
| GATGATTGTTCTCCCAGCTGATGAATTAAGGTGTTCGAGTAAACAAATTTTCCTAATCTTTCTGTTCAAGCGCCATCTAC | 0.982 RPM ratio (pull-down/input) |
| GATGATTGTTCTCCCAGCTGATGAATTTTCCGACTCGAGTAAACAAATTTTCCTAATCTTTCTGTTCAAGCGCCATCTAC | 0.847 RPM ratio (pull-down/input) |
| GATGATTGTTCTCCCAGCTGATGAATTAGATGATTCGAGTAAACAAATTTTCCTAATCTTTCTGTTCAAGCGCCATCTAC | 1.04 RPM ratio (pull-down/input) |
| GATGATTGTTCTCCCAGCTGATGAATTCGATTCATCGAGTAAACAAATTTTCCTAATCTTTCTGTTCAAGCGCCATCTAC | 0.896 RPM ratio (pull-down/input) |
| GATGATTGTTCTCCCAGCTGATGAATTACATGACTCGAGTAAACAAATTTTCCTAATCTTTCTGTTCAAGCGCCATCTAC | 1.13 RPM ratio (pull-down/input) |
| GATGATTGTTCTCCCAGCTGATGAATTGAGCTCTTCGAGTAAACAAATTTTCCTAATCTTTCTGTTCAAGCGCCATCTAC | 0.833 RPM ratio (pull-down/input) |
| GATGATTGTTCTCCCAGCTGATGAATTACGAAGTTCGAGTAAACAAATTTTCCTAATCTTTCTGTTCAAGCGCCATCTAC | 1.04 RPM ratio (pull-down/input) |
| GATGATTGTTCTCCCAGCTGATGAATTGGAGTCTTCGAGTAAACAAATTTTCCTAATCTTTCTGTTCAAGCGCCATCTAC | 0.806 RPM ratio (pull-down/input) |
| GATGATTGTTCTCCCAGCTGATGAATTCATAATCTCGAGTAAACAAATTTTCCTAATCTTTCTGTTCAAGCGCCATCTAC | 0.871 RPM ratio (pull-down/input) |
| GATGATTGTTCTCCCAGCTGATGAATTCGGGACATCGAGTAAACAAATTTTCCTAATCTTTCTGTTCAAGCGCCATCTAC | 0.873 RPM ratio (pull-down/input) |
| GATGATTGTTCTCCCAGCTGATGAATTCGTTATCTCGAGTAAACAAATTTTCCTAATCTTTCTGTTCAAGCGCCATCTAC | 0.923 RPM ratio (pull-down/input) |
| GATGATTGTTCTCCCAGCTGATGAATTATGAATCTCGAGTAAACAAATTTTCCTAATCTTTCTGTTCAAGCGCCATCTAC | 0.948 RPM ratio (pull-down/input) |

| Sequence | binding signal |
| --- | --- |
| GATGATTGTTCTCCCAGCTGATGAATTGTCATGTTCGAGTAAACAAATTTTCCTAATCTTTCTGTTCAAGCGCCATCTAC | 1.12 RPM ratio (pull-down/input) |
| GATGATTGTTCTCCCAGCTGATGAATTGATAGTTTCGAGTAAACAAATTTTCCTAATCTTTCTGTTCAAGCGCCATCTAC | 0.968 RPM ratio (pull-down/input) |
| GATGATTGTTCTCCCAGCTGATGAATTATATGATTCGAGTAAACAAATTTTCCTAATCTTTCTGTTCAAGCGCCATCTAC | 1.13 RPM ratio (pull-down/input) |
| GATGATTGTTCTCCCAGCTGATGAATTAGTCATGTCGAGTAAACAAATTTTCCTAATCTTTCTGTTCAAGCGCCATCTAC | 0.952 RPM ratio (pull-down/input) |
| GATGATTGTTCTCCCAGCTGATGAATTGAGGCGGTCGAGTAAACAAATTTTCCTAATCTTTCTGTTCAAGCGCCATCTAC | 0.939 RPM ratio (pull-down/input) |
| GATGATTGTTCTCCCAGCTGATGAATTAAGCGGGTCGAGTAAACAAATTTTCCTAATCTTTCTGTTCAAGCGCCATCTAC | 1.03 RPM ratio (pull-down/input) |
| GATGATTGTTCTCCCAGCTGATGAATTGGACCAGTCGAGTAAACAAATTTTCCTAATCTTTCTGTTCAAGCGCCATCTAC | 0.766 RPM ratio (pull-down/input) |
| GATGATTGTTCTCCCAGCTGATGAATTTTCGCGCTCGAGTAAACAAATTTTCCTAATCTTTCTGTTCAAGCGCCATCTAC | 0.844 RPM ratio (pull-down/input) |
| GATGATTGTTCTCCCAGCTGATGAATTCCCACCTTCGAGTAAACAAATTTTCCTAATCTTTCTGTTCAAGCGCCATCTAC | 0.828 RPM ratio (pull-down/input) |
| GATGATTGTTCTCCCAGCTGATGAATTGTACCGTTCGAGTAAACAAATTTTCCTAATCTTTCTGTTCAAGCGCCATCTAC | 1.02 RPM ratio (pull-down/input) |
| GATGATTGTTCTCCCAGCTGATGAATTCAGGCCATCGAGTAAACAAATTTTCCTAATCTTTCTGTTCAAGCGCCATCTAC | 0.92 RPM ratio (pull-down/input) |
| GATGATTGTTCTCCCAGCTGATGAATTGGTGACCTCGAGTAAACAAATTTTCCTAATCTTTCTGTTCAAGCGCCATCTAC | 0.865 RPM ratio (pull-down/input) |
| GATGATTGTTCTCCCAGCTGATGAATTTAACTATTCGAGTAAACAAATTTTCCTAATCTTTCTGTTCAAGCGCCATCTAC | 0.876 RPM ratio (pull-down/input) |
| GATGATTGTTCTCCCAGCTGATGAATTCGCAACATCGAGTAAACAAATTTTCCTAATCTTTCTGTTCAAGCGCCATCTAC | 1.3 RPM ratio (pull-down/input) |
| GATGATTGTTCTCCCAGCTGATGAATTCATCGCATCGAGTAAACAAATTTTCCTAATCTTTCTGTTCAAGCGCCATCTAC | 1.15 RPM ratio (pull-down/input) |
| GATGATTGTTCTCCCAGCTGATGAATTCTAATTCTCGAGTAAACAAATTTTCCTAATCTTTCTGTTCAAGCGCCATCTAC | 0.884 RPM ratio (pull-down/input) |
| GATGATTGTTCTCCCAGCTGATGAATTATGATAGTCGAGTAAACAAATTTTCCTAATCTTTCTGTTCAAGCGCCATCTAC | 0.942 RPM ratio (pull-down/input) |
| GATGATTGTTCTCCCAGCTGATGAATTTCCGCGTTCGAGTAAACAAATTTTCCTAATCTTTCTGTTCAAGCGCCATCTAC | 0.837 RPM ratio (pull-down/input) |
| GATGATTGTTCTCCCAGCTGATGAATTATCTCACTCGAGTAAACAAATTTTCCTAATCTTTCTGTTCAAGCGCCATCTAC | 1.03 RPM ratio (pull-down/input) |
| GATGATTGTTCTCCCAGCTGATGAATTCAATTCGTCGAGTAAACAAATTTTCCTAATCTTTCTGTTCAAGCGCCATCTAC | 0.887 RPM ratio (pull-down/input) |
| GATGATTGTTCTCCCAGCTGATGAATTGAGCAGCTCGAGTAAACAAATTTTCCTAATCTTTCTGTTCAAGCGCCATCTAC | 0.812 RPM ratio (pull-down/input) |

| Sequence | binding signal |
| --- | --- |
| GATGATTGTTCTCCCAGCTGATGAATTCACGGTATCGAGTAAACAAATTTTCCTAATCTTTCTGTTCAAGCGCCATCTAC | 0.867 RPM ratio (pull-down/input) |
| GATGATTGTTCTCCCAGCTGATGAATTTGTTGGTTCGAGTAAACAAATTTTCCTAATCTTTCTGTTCAAGCGCCATCTAC | 2.02 RPM ratio (pull-down/input) |
| GATGATTGTTCTCCCAGCTGATGAATTCTAATGCTCGAGTAAACAAATTTTCCTAATCTTTCTGTTCAAGCGCCATCTAC | 0.962 RPM ratio (pull-down/input) |
| GATGATTGTTCTCCCAGCTGATGAATTGATCGCATCGAGTAAACAAATTTTCCTAATCTTTCTGTTCAAGCGCCATCTAC | 1.26 RPM ratio (pull-down/input) |
| GATGATTGTTCTCCCAGCTGATGAATTATATAATTCGAGTAAACAAATTTTCCTAATCTTTCTGTTCAAGCGCCATCTAC | 1.09 RPM ratio (pull-down/input) |
| GATGATTGTTCTCCCAGCTGATGAATTGCGTATCTCGAGTAAACAAATTTTCCTAATCTTTCTGTTCAAGCGCCATCTAC | 1.12 RPM ratio (pull-down/input) |
| GATGATTGTTCTCCCAGCTGATGAATTATACGGTTCGAGTAAACAAATTTTCCTAATCTTTCTGTTCAAGCGCCATCTAC | 0.951 RPM ratio (pull-down/input) |
| GATGATTGTTCTCCCAGCTGATGAATTGACCTAATCGAGTAAACAAATTTTCCTAATCTTTCTGTTCAAGCGCCATCTAC | 1.14 RPM ratio (pull-down/input) |
| GATGATTGTTCTCCCAGCTGATGAATTGAAGTATTCGAGTAAACAAATTTTCCTAATCTTTCTGTTCAAGCGCCATCTAC | 1.04 RPM ratio (pull-down/input) |
| GATGATTGTTCTCCCAGCTGATGAATTTTGTAACTCGAGTAAACAAATTTTCCTAATCTTTCTGTTCAAGCGCCATCTAC | 1.1 RPM ratio (pull-down/input) |
| GATGATTGTTCTCCCAGCTGATGAATTTCACCCCTCGAGTAAACAAATTTTCCTAATCTTTCTGTTCAAGCGCCATCTAC | 0.863 RPM ratio (pull-down/input) |
| GATGATTGTTCTCCCAGCTGATGAATTTTGAAAGTCGAGTAAACAAATTTTCCTAATCTTTCTGTTCAAGCGCCATCTAC | 0.918 RPM ratio (pull-down/input) |
| GATGATTGTTCTCCCAGCTGATGAATTTTGGTACTCGAGTAAACAAATTTTCCTAATCTTTCTGTTCAAGCGCCATCTAC | 0.964 RPM ratio (pull-down/input) |
| GATGATTGTTCTCCCAGCTGATGAATTAGTCAGGTCGAGTAAACAAATTTTCCTAATCTTTCTGTTCAAGCGCCATCTAC | 0.84 RPM ratio (pull-down/input) |
| GATGATTGTTCTCCCAGCTGATGAATTGGCGTTTTCGAGTAAACAAATTTTCCTAATCTTTCTGTTCAAGCGCCATCTAC | 1.15 RPM ratio (pull-down/input) |
| GATGATTGTTCTCCCAGCTGATGAATTAGGTAAATCGAGTAAACAAATTTTCCTAATCTTTCTGTTCAAGCGCCATCTAC | 1.36 RPM ratio (pull-down/input) |
| GATGATTGTTCTCCCAGCTGATGAATTATCGCCCTCGAGTAAACAAATTTTCCTAATCTTTCTGTTCAAGCGCCATCTAC | 0.859 RPM ratio (pull-down/input) |
| GATGATTGTTCTCCCAGCTGATGAATTTTCTAAATCGAGTAAACAAATTTTCCTAATCTTTCTGTTCAAGCGCCATCTAC | 1.15 RPM ratio (pull-down/input) |
| GATGATTGTTCTCCCAGCTGATGAATTATCCCAGTCGAGTAAACAAATTTTCCTAATCTTTCTGTTCAAGCGCCATCTAC | 0.862 RPM ratio (pull-down/input) |
| GATGATTGTTCTCCCAGCTGATGAATTCGCCAGATCGAGTAAACAAATTTTCCTAATCTTTCTGTTCAAGCGCCATCTAC | 0.873 RPM ratio (pull-down/input) |
| GATGATTGTTCTCCCAGCTGATGAATTCCCTCTGTCGAGTAAACAAATTTTCCTAATCTTTCTGTTCAAGCGCCATCTAC | 0.793 RPM ratio (pull-down/input) |
